Among all 390,000 compounds or so, about 910 (0.23%) were called active. Not shown: some 5% with an inconclusive outcome. The call rests on the fitted dose curve; in most records, active means well fitted inhibition curve with a large enough effect; inconclusive means small, poorly fitted or top-dose-only effect; inactive means no such curve, though single readings can be large or run the other way. Only a part is listed here, and it is no random draw.
biological target: Ubiquitin carboxyl-terminal hydrolase 1 (Homo sapiens) (UniProt O94782); assay: Inhibitors of USP1/UAF1: Primary Screen; details: recombinant USP1/UAF1, Ub-Rhodamine cleavage fluorescence; activity change, negative = inhibition: at 57.1 µM (top of the series); further: nearly all actives have a fitted effect of over 60% in size
Method in brief: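 In this screen, compounds sit with the deubiquitinase complex (1nM) for 15 min at room temperature before Ub-Rho is added at 150nM final. Fluorescence rise is then followed for 6 reads every 60 seconds.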
On the % scale 0 is the no-effect control and ±100 the full control effect; potency means the concentration at half of the fitted maximal effect.

Sequence of UniProt O94782 (O94782 whole entry, looked up): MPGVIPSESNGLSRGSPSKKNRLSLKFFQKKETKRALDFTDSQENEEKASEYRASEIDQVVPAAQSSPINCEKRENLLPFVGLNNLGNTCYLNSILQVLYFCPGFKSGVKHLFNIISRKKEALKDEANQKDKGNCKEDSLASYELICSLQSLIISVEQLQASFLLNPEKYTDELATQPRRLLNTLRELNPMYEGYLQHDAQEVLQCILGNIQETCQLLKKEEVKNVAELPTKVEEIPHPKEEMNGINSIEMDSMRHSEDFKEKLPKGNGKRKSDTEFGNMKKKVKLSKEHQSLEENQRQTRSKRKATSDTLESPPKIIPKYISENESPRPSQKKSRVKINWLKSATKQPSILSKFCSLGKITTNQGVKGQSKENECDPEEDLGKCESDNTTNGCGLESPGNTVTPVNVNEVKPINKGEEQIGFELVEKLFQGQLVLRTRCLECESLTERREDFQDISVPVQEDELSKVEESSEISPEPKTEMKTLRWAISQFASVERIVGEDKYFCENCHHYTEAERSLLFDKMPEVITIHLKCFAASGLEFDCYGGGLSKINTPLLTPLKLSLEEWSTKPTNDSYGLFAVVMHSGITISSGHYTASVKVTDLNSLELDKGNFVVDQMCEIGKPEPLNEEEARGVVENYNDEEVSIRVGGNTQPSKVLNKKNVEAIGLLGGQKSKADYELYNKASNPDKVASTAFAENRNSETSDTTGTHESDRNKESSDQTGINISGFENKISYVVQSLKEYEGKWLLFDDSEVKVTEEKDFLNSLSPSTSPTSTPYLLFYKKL

| Structure (SMILES) | Potency | activity change, negative = inhibition |
| --- | --- | --- |
| C[N+]1(C)CCC(=C2c3ccccc3CC(=O)c3sccc32)CC1 | active: 28.2 µM | – |
| C[C@H]1COC(=O)[C@H](Cc2ccc(F)cc2)C/C=C\C[C@@H](CC(=O)NCCO)C(=O)N1 | – | inactive: -27% |
| COc1ccc(NC(=O)Cn2nc(C(F)(F)F)c3c2CCCC3)cc1OC | – | inactive: -20.3% |
| N#C/C(=C\N1CCN(Cc2ccc3c(c2)OCO3)CC1)c1nc2ccccc2s1 | active: 31.6 µM | – |
| O=C1C=CC(=O)c2c(O)c(CO)c(CO)c(O)c21 | active: 14.1 µM | – |
| O=C1C(Cl)=C(NCCN2CCCCC2)C(=O)c2ccccc21 | active: 17.8 µM | – |
| COC(C[C@@H]1O[C@@H]1[C@@H](O)COCc1ccccc1)OC | – | inactive: -29.1% |
| C[C@H](CO)N1C[C@H](C)[C@H](CN(C)Cc2ccccc2)Oc2ncc(Br)cc2C1=O | – | inactive: 8.11% |
| CCOc1ccccc1NC(=O)CSc1cc(=O)n(CC)c2ccccc12 | – | inactive: 41.9% |
| CCCCNC(=O)COC(=O)c1c2c(nc3ccccc13)/C(=C/c1cccs1)CC2 | – | inactive: -2.46% |
| CCN(CC)S(=O)(=O)c1cccc(C(=O)NC(C(=O)NC2=NCCS2)C(C)C)c1 (stereo unspecified) | – | inactive: -0.318% |
| Cc1cccc(N(C)S(=O)(=O)c2ccc3c(c2)NC(=O)CC(=O)N3)c1 | – | inactive: -14.3% |
| CCc1nc2ccc(C(=O)N3CCN(c4cccc(Cl)c4)CC3)cc2nc1CC | – | inactive: -23.1% |
| CCOC(=O)CC(=O)CSc1nc2ccc(C)cc2cc1C#N | active: 28.2 µM | – |
| Cc1ccc([C@@H]2[C@@H]3C(=O)N(C)C(=O)[C@@H]3[C@]3(C)C(=O)N(Cc4ccccc4)CC(=O)N23)o1 | – | inactive: 23.3% |
| O=C(Nc1ccccc1F)C(=Cc1sc(N2CCOCC2)nc1-c1ccccc1)C(=O)Nc1ccccc1F | – | inactive: 277% |
| CCC(C)N1C(=O)/C(=C/c2c(NCCCOC(C)C)nc3c(C)cccn3c2=O)SC1=S (stereo unspecified) | – | inactive: 27.6% |
| C/C=C(\C)C(=O)NCCN1C2=NC[C@@H](Cc3ccccc3)N2C[C@H]1Cc1ccc(O)cc1 | – | inactive: -26% |
| CCc1ccc(NC(=O)C2=CC(c3cccs3)=NS(=O)(=O)N2C)cc1 | – | inactive: -16.1% |
| C[C@H](NC(=O)c1ncn(C)c1C(=O)N[C@@H](C)c1ccccc1)c1ccccc1 | – | inactive: -17.9% |
| C=CC[C@H](CC(=O)NCCO)C(=O)N[C@H](COC(=O)[C@@H](CC=C)CC(=O)OC(C)(C)C)Cc1c[nH]c2ccccc12 | – | inactive: -12% |
| C[C@@H]1COC(=O)[C@H](CC(=O)OC(C)(C)C)C/C=C\C[C@H](CC(=O)NCCO)C(=O)N1 | – | inactive: -0.622% |

| Structure (SMILES) | Potency | activity change, negative = inhibition |
| --- | --- | --- |
| CCn1cc(C(=O)N2CCN(c3ccccc3)CC2)c(=O)c2cc(S(=O)(=O)N3CCOCC3)ccc21 | – | inactive: -8.55% |
| O=C1C=C(Nc2cccc3cccnc23)c2ccccc2C1=O | active: 17.8 µM | – |
| CCOc1ccc(Cn2c(=O)sc3ccccc32)cc1 | – | inactive: -24.8% |
| CCO[C@H]1c2c(ccc3ccc(=O)oc23)OC(C)(C)[C@@H]1O | – | inactive: -4.41% |
| CN(C)c1ccc(/C=C(\C#N)C(=O)Nc2nc3c(s2)CCN(Cc2ccccc2)C3)cc1 | active: 4.47 µM | – |
| CCc1ccc(CNc2ccc(O)cc2)cc1 | active: 28.2 µM | – |
| Nc1cccc2cc(S(=O)(=O)O)ccc12 | active: 7.08 µM | – |
| CCN(CC)c1ccc(/C=C2\C(=O)c3ccc(C(=O)O)cc3C2=O)cc1 | active: 14.1 µM | – |
| C=C(C)C(=O)Nc1cccc(C2=NOC3(C2)C[C@@H](C(N)=O)N(C(=O)C2(C)CC2)C3)c1 (stereo partly specified) | – | inactive: 31.5% |
| CCOC(=O)/C(=C\C=C1/Sc2cc(OCC)c(OCC)cc2N1CC)C(C)=O | active: 25.1 µM | – |
| OC[C@@H](O)[C@@H](O)[C@H](O)[C@@H](O)CO | – | inactive: -9.92% |
| C[C@@H]1CN([C@@H](C)CO)C(=O)CCCn2nncc2CO[C@@H]1CN(C)C(=O)Nc1ccccc1F | – | inactive: -19.6% |
| O=c1ccc(-c2ccccc2)nn1Cc1ccc(F)cc1Cl | – | inactive: -15% |
| C[C@H]1CCC[C@]2(O[C@@H](CCO)C[C@@H](O)[C@@H]2O)O1 | – | inactive: -23.4% |
| Nc1ccc(S(=O)(=O)O)cn1 | inactive | – |
| CC(C)CCN(C(=O)Nc1ccccc1)C(C)c1cccs1 (stereo unspecified) | – | inactive: -19.4% |
| C[C@H](CO)N1C[C@H](C)[C@H](CN(C)S(=O)(=O)c2ccc(-n3cccn3)cc2)OCc2cnnn2CCCC1=O | – | inactive: -11.7% |
| COC(C/C=C\[C@H](O)COCc1ccccc1)OC | – | inactive: -29.7% |
| O=C(NCc1cccs1)C1CCCN1S(=O)(=O)c1ccccc1F (stereo unspecified) | – | inactive: -13.1% |
| C[C@@H]1CN(S(=O)C(C)(C)C)[C@@H](CCO)/C1=C\c1ccccc1 (stereo partly specified) | – | inactive: -28.1% |
| COC(=O)c1ccc(NC(=O)CN2CCN(S(=O)(=O)c3ccc(Br)cc3)CC2)cc1 | – | inactive: -16.6% |
| COc1ccc(/C=C2\NC(=S)N(CC3CCCO3)C2=O)c(OC)c1 (stereo unspecified) | – | inactive: 36.1% |

| Structure (SMILES) | Potency | activity change, negative = inhibition |
| --- | --- | --- |
| C=CCC[C@@H](Cc1ccc(F)cc1)C(=O)OC[C@H](C)NC(=O)[C@@H](CC=C)CC(=O)N(CCO)Cc1ccccc1 | – | inactive: -20.5% |
| C[C@H]1NC(=O)[C@]2(C)[C@@H](c3ccccc3)[C@H]3COc4ccccc4[C@@H]3N2C1=O | – | inactive: -20.7% |
| C[C@H]1CN([C@@H](C)CO)C(=O)CCCn2cc(nn2)CO[C@@H]1CN(C)S(=O)(=O)c1ccc2ccccc2c1 | – | inactive: -16.8% |
| C[C@@H]1CN([C@H](C)CO)C(=O)CCCn2nncc2CO[C@H]1CN(C)Cc1cccc(C(F)(F)F)c1 | – | inactive: -2.24% |
| CN1C(=O)/C(=C/C=C2/CCCN2C)N(C)C1=S | – | inactive: -26.2% |
| Cc1ccc(OC(=O)N(C)C[C@@H]2OCc3cn(nn3)CCCC(=O)N([C@H](C)CO)C[C@H]2C)cc1 | – | inactive: -21.2% |
| C#C[C@]1(O)CC[C@H]2[C@@H]3CCC4=CC(=O)CC[C@@H]4[C@H]3CC[C@@]21C | – | inactive: -14.9% |
| C=CC[C@@H](CC(=O)N(CCO)Cc1ccccc1)C(=O)N[C@H](COC(=O)[C@@H](CC=C)CC(=O)OC(C)(C)C)Cc1ccccc1 | – | inactive: -24% |
| CCC1CN(C(=O)N2CCC(C(=O)NCCc3ccc(OC)c(OC)c3)CC2)c2ccccc2O1 (stereo unspecified) | – | inactive: -20.6% |
| COc1ccc(-c2nn(C)c3sc(C(=O)NCCN(C)C)cc23)cc1OC | – | inactive: -11.3% |
| CCC1CCCCN1CCCNC(=O)c1ccc2c(c1)c(C)c(C)n2CC (stereo unspecified) | – | inactive: -6.05% |
| Cn1c(=O)c(=O)n(C)c2cc(S(=O)(=O)CCC(=O)Nc3ccc(F)cc3)ccc21 | – | inactive: -7.34% |
| CC(=O)Nc1ccc(NC(=O)CSc2nc3ccccc3nc2N2CCC(C)CC2)cc1 | – | inactive: -10% |
| Cc1ccc(-c2cc(C(F)(F)F)c(C#N)c(SCC(=O)Nc3ccccc3)n2)cc1 | – | inactive: 33.6% |
| C[C@@H]1CN([C@H](C)CO)C(=O)CCCn2nncc2CO[C@H]1CN(C)S(=O)(=O)c1ccccc1F | – | inactive: -6.42% |
| CCc1c(C)nc(SCC(=O)N2CCN(c3ccccc3OC)CC2)[nH]c1=O | – | inactive: -9.81% |
| COc1ccc(C(=O)Nc2ccc3nc4n(c(=O)c3c2)CCCCC4)cc1OC | – | inactive: -22.6% |
| CCCCCC(=O)N1C[C@@H](n2cc(-c3ccc(F)cc3)nn2)[C@H](O)C[C@@H]1c1ccc(C)cc1 | – | inactive: -13% |
| CCN1C(=O)/C(=C\c2nc3ccccc3c(=O)n2-c2ccccc2)c2ccccc21 | – | inactive: -27% |
| OCC[C@@H]1C[C@@H](O)[C@H](O)[C@@]2(CCCO2)O1 | – | inactive: -22.7% |
| O=C(NC1CC1)C1=C[C@H](c2coc3ccccc3c2=O)C[C@H](OCCCCO)O1 | – | inactive: -25.1% |
| O=C1N[C@H](Cc2ccccc2)COC(=O)[C@H](Cc2ccc(F)cc2)CC/C=C/C[C@@H]1CC(=O)N(CCO)Cc1ccccc1 | – | inactive: -18.2% |

| Structure (SMILES) | Potency | activity change, negative = inhibition |
| --- | --- | --- |
| CCOC(=O)/C=C1\SCC(=O)N1CC(=O)Nc1ccc2c(c1)CCC2 | – | inactive: -0.916% |
| CCOC(=O)[C@@H]1[C@H]2COc3ccc(Br)cc3[C@@H]2N2C(=O)N(c3cccc(F)c3)C(=O)[C@@]12C | – | inactive: -22% |
| O=C(NCc1cccc(C(F)(F)F)c1)c1cccc2c1C(=O)c1ccc(N3CCC(Cc4ccccc4)CC3)cc1S2(=O)=O | active: 25.1 µM | – |
| CC(=O)c1cccc(NC(=O)c2ccc3c(c2)CCN3S(=O)(=O)c2ccccc2)c1 | – | inactive: -12.8% |
| Cc1ccc(NC(=O)c2nc[nH]c2C(=O)N[C@@H](C)c2ccccc2)cc1 | – | inactive: -21.8% |
| C[C@H]1COC(=O)[C@H](NC(=O)OCC2c3ccccc3-c3ccccc32)C/C=C\C[C@H](CC(=O)N(CCO)Cc2ccccc2)C(=O)N1 | – | inactive: -4.71% |
| COc1cccc(S(=O)(=O)N(C)C[C@@H]2OCc3cnnn3CCCC(=O)N([C@@H](C)CO)C[C@@H]2C)c1 | – | inactive: 4.83% |
| COc1ccccc1CCNC(=O)C1CCN(c2nnc(C)c3c(C)n(-c4ccc(C)cc4)nc23)CC1 | – | inactive: -12.3% |
| CC(C)C(=O)Nc1nnc(S(=O)(=O)N2c3ccccc3CC2C)s1 (stereo unspecified) | – | inactive: -22.7% |
| CCN1/C(=C/C=C/c2oc3ccc4ccccc4c3[n+]2CC)Oc2ccc3ccccc3c21 | – | inactive: 157% |
| O=c1oc2c3c4c(cc2c(C(F)(F)F)c1CCN1CCOCC1)CCCN4CCC3 | active: 6.31 µM | – |
| O=C1/C(=C\c2cc(Cl)c(O)c(Cl)c2)SC(=S)N1Cc1ccccc1 | active: 3.98 µM | – |
| C[C@H](CO)N1C[C@H](C)[C@@H](CN(C)S(=O)(=O)c2ccc3c(c2)OCCCO3)OCc2cn(nn2)CCCC1=O | – | inactive: -16.5% |
| C[C@@H]1CN([C@H](C)CO)C(=O)CCCn2nncc2CO[C@H]1CN(C)Cc1cccc(C(=O)O)c1 | – | inactive: -3.28% |
| NC(=O)[C@@H]1CC2(CC(c3cccc(NC(=O)CC(c4ccccc4)c4ccccc4)c3)=NO2)CN1C(=O)c1ccc(Cl)cc1 (stereo partly specified) | – | inactive: 19.7% |
| C[C@H]1CN([C@@H](C)CO)C(=O)CCCn2nncc2CO[C@@H]1CN(C)Cc1ccccc1 | – | inactive: -10.4% |
| C[C@@H]1COC(=O)[C@H](Cc2ccc(F)cc2)C/C=C\C[C@@H](CC(=O)NCCO)C(=O)N1 | – | inactive: -28.6% |
| O=C1NC[C@H](c2ccccc2)OC(=O)[C@@H](Cc2ccc(F)cc2)CC/C=C/C[C@@H]1CC(=O)N(CCO)Cc1ccccc1 | – | inactive: -21.7% |
| CCc1ccc(C(=O)/C=C/Nc2ccc(S(=O)(=O)Nc3cnc4ccccc4n3)cc2)cc1 | – | inactive: -26.8% |
| CN1/C(=C\C=C2/SC(=S)NC2=O)C(C)(C)c2ccccc21 | active: 25.1 µM | – |

Reference: PubChem BioAssay AID743255 (National Center for Advancing Translational Sciences (NCATS), 2014)
